Source: patent CN114790245A (CHENGDU KANGHONG BIOLOGICAL TECH CO LTD, dated 2022)
Changes are numbered by the printed parent chain.

B1: KH06 (antibody, human IgG4 S228P, kappa)
heavy: EVQLQQSGAELVKPGASVRLSCTASGFNIKDTYIFWVKQRPKQGLEWIGRIDPENDNTKYDPKIQGKATLTADTSSNTAYLQLSSLTSEDSAIYYCAKGGGLFAYWGQGTLVSVSAASTKGPSVFPLAPCSRSTSESTAALGCLVKDYFPEPVTVSWNSGALTSGVHTFPAVLQSSGLYSLSSVVTVPSSSLGTKTYTCNVDHKPSNTKVDKRV[letters of human IgG4 Fc with S228P (EU numbers) not shown]
light: DIQMTQSPSSLSASVGDRVTITCEASHDINNYIAWYQQKPGKAPKLLIYYTSTLQSGVPSRFSGSGSGTDFTFTISSLQPEDIATYYCLQYDNLFTFGQGTKVEIKRTVAAPSVFIFPPSDEQLKSGTASVVCLLNNFYPREAKVQWKVDNALQSGNSQESVTEQDSKDSTYSLSSTLTLSKADYEKHKVYACEVTHQGLSSPVTKSFNRGEC
B2: KH08 (antibody, human IgG4 S228P, kappa)
heavy: B1 heavy
light: B1 light with S10A, L11M

Biological target: 血浆激肽释放酶(plasma kallikrein,PK) (human, UniProt P03952 20-638)
Chain of UniProt P03952 (P03952 20-638 limits assumed): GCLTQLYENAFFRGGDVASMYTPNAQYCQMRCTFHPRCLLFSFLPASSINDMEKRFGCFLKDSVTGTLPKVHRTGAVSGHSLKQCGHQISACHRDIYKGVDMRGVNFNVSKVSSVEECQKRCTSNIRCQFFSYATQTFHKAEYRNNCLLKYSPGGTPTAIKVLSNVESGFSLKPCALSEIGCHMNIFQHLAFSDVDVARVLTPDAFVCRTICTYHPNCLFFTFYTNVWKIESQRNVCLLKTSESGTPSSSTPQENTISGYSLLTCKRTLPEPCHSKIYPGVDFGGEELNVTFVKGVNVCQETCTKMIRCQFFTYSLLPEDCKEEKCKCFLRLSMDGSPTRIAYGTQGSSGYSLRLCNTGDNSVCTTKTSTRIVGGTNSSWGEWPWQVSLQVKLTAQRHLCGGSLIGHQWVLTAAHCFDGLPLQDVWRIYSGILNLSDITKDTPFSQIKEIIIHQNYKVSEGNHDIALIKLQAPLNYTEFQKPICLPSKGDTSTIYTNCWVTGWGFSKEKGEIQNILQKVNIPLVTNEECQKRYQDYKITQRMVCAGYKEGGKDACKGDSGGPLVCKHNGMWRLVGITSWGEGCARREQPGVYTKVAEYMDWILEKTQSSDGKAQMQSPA
Assay: cell-based or functional assay

Row | Binder | IC50(nM), PK activity in human plasma activated with Factor XIIa (H-Pro-Phe-Arg-AMC)
1 | B1 | 0.918 nM
2 | B2 | 0.578 nM
